Experimental data as given in US20260083855A1 (Hoffmann-La Roche, published 2026).
Where a chain is given by its changes, count along the chain named. Names may count otherwise. Each block holds one binder with its values, some of them ahead of it.

Columns and labels:
[1] = target: T1, hu IL2R beta-gamma-Fc (P1AD7029-002) (human, UniProt P14784 27-240; P31785 23-262); test: SPR, purified, captured via anti-human Fc, IL2Rbg-Fc analyte, 1:1 Langmuir
T1 construct: Analyte in all SPR runs; also called human IL2R beta-gamma Fc; recombinant human IL2Rbeta-gamma-Fc heterodimer; not shown: Fc part and any linker of the heterodimer
T1 sequence (looked up) 1: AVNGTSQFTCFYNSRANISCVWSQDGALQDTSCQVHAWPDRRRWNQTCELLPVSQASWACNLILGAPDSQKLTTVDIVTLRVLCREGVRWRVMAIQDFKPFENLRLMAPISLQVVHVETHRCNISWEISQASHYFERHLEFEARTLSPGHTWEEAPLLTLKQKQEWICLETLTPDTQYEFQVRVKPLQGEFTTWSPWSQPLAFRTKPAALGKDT
T1 sequence (looked up) 2: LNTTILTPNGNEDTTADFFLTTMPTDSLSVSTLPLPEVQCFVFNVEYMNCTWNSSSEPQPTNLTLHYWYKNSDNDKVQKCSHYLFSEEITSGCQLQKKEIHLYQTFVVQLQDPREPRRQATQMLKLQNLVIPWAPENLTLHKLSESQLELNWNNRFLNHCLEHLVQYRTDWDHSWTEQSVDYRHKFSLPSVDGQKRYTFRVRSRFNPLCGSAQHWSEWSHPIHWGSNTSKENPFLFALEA
From the text: Bulk refractive index differences were corrected for by subtracting the response obtained on the reference flow cell 1.

[2] = target: T2, IL-2R on human cells (activated CD4 T cells, PBMC subsets, NK92) (human, UniProt P14784 27-551; P31785 23-369); test: cell-based or functional assay; parameters: AUC of STAT5-P on PD1+ T cells / AUC of STAT5-P on PD1-blocked T cells: unit not given beside the values
T2 sequence (looked up) 1: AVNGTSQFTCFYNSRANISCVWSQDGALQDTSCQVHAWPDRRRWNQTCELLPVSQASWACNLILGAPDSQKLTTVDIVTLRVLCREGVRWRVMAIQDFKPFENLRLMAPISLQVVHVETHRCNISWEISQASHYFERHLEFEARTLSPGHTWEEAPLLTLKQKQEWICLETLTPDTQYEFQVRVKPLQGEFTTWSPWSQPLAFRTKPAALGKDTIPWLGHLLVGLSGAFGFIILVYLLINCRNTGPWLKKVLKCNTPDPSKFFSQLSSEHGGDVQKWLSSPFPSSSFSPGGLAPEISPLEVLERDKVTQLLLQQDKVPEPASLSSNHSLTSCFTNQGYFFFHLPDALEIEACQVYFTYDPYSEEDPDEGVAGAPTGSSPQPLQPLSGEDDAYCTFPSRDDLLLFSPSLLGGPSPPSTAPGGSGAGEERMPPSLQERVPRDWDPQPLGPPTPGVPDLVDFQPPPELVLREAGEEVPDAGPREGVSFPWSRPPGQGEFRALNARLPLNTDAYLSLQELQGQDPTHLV
T2 sequence (looked up) 2: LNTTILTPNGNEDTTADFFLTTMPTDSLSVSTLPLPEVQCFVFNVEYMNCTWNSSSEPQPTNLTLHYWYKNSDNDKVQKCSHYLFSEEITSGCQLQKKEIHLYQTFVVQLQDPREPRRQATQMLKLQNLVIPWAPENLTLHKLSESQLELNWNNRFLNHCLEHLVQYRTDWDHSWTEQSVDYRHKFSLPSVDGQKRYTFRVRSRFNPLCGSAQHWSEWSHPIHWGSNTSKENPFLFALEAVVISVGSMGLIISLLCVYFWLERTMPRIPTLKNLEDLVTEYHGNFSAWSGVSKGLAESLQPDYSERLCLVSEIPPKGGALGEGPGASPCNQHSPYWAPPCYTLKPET

[3] = target: human PD-1 on activated CD4 T cells (human, UniProt Q15116 25-288); test: cell-based or functional assay; parameters: AUC of STAT5-P on PD1+ T cells / AUC of STAT5-P on PD1-blocked T cells: unit not given beside the values
Chain of UniProt Q15116 (Q15116 25-288 limits assumed): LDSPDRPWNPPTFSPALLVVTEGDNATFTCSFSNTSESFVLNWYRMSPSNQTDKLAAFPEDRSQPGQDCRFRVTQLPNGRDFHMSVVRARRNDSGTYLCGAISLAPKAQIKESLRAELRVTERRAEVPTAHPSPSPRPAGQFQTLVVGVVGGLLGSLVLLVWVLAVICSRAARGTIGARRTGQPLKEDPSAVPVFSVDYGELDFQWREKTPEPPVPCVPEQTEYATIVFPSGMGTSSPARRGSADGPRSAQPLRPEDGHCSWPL

B1: PD1 376 IgG-huIL2v L12V (P1AE0489) (other)
light: DIVMTQSPDSLAVSLGERATINCKASESVDTSDNSFIHWYQQKPGQSPKLLIYRSSTLESGVPDRFSGSGSGTDFTLTISSLQAEDVAVYYCQQNYDVPWTFGQGTKVEIKRTVAAPSVFIFPPSDEQLKSGTASVVCLLNNFYPREAKVQWKVDNALQSGNSQESVTEQDSKDSTYSLSSTLTLSKADYEKHKVYACEVTHQGLSSPVTKSFNRGEC
heavy 1: EVQLLESGGGLVQPGGSLRLSCAASGFSFSSYTMSWVRQAPGKGLEWVATISGGGRDIYYPDSVKGRFTISRDNSKNTLYLQMNSLRAEDTAVYYCVLLTGRVYFALDSWGQGTLVTVSSASTKGPSVFPLAPSSKSTSGGTAALGCLVKDYFPEPVTVSWNSGALTSGVHTFPAVLQSSGLYSLSSVVTVPSSSLGTQTYICNVNHKPSNTKVDKKVEPKSCDKTHTCPPCPAPEAAGGPSVFLFPPKPKDTLMISRTPEVTCVVVDVSHEDPEVKFNWYVDGVEVHNAKTKPREEQYNSTYRVVSVLTVLHQDWLNGKEYKCKVSNKALGAPIEKTISKAKGQPREPQVCTLPPSRDELTKNQVSLSCAVKGFYPSDIAVEWESNGQPENNYKTTPPVLDSDGSFFLVSKLTVDKSRWQQGNVFSCSVMHEALHNHYTQKSLSLSPGK
heavy 2: EVQLLESGGGLVQPGGSLRLSCAASGFSFSSYTMSWVRQAPGKGLEWVATISGGGRDIYYPDSVKGRFTISRDNSKNTLYLQMNSLRAEDTAVYYCVLLTGRVYFALDSWGQGTLVTVSSASTKGPSVFPLAPSSKSTSGGTAALGCLVKDYFPEPVTVSWNSGALTSGVHTFPAVLQSSGLYSLSSVVTVPSSSLGTQTYICNVNHKPSNTKVDKKV[human IgG1 Fc with changes not written out]GGGGSGGGGSGGGGSAPASSSTKKTQVQLEHLLLDLQMILNGINNYKNPKLTRMLTAKFAMPKKATELKHLQCLEEELKPLEEVLNGAQSKNFHLRPRDLISNINVIVLELKGSETTFMCEYADETATIVEFLNRWITFAQSIISTLT
notes: Immunoconjugate: anti-human PD-1 (376) IgG1 PG LALA knob/hole, IL2v variant on the knob heavy chain; also called P1AE0489-007
Kd [1]: 0.004 nM
koff [1]: 7.53e-07 s⁻¹
kon [1]: 191000 M⁻¹ s⁻¹

B4: PD1 376 IgG-huIL2v L19V (P1AE0491) (other)
light: B1 light
heavy 1: B1 heavy 1
heavy 2: EVQLLESGGGLVQPGGSLRLSCAASGFSFSSYTMSWVRQAPGKGLEWVATISGGGRDIYYPDSVKGRFTISRDNSKNTLYLQMNSLRAEDTAVYYCVLLTGRVYFALDSWGQGTLVTVSSASTKGPSVFPLAPSSKSTSGGTAALGCLVKDYFPEPVTVSWNSGALTSGVHTFPAVLQSSGLYSLSSVVTVPSSSLGTQTYICNVNHKPSNTKVDKKV[human IgG1 Fc with changes not written out]GGGGSGGGGSGGGGSAPASSSTKKTQLQLEHLLVDLQMILNGINNYKNPKLTRMLTAKFAMPKKATELKHLQCLEEELKPLEEVLNGAQSKNFHLRPRDLISNINVIVLELKGSETTFMCEYADETATIVEFLNRWITFAQSIISTLT
notes: Immunoconjugate: anti-human PD-1 (376) IgG1 PG LALA knob/hole, IL2v variant on the knob heavy chain; also called PD1-IL2v L19V
Kd [1]: 0.18 nM
koff [1]: 3.57e-05 s⁻¹
kon [1]: 196000 M⁻¹ s⁻¹
AUC of STAT5-P on PD1+ T cells [2]: 201
AUC of STAT5-P on PD1-blocked T cells [2]: 92.7
Potency reduction vs PD1-IL2v [2]: 1.45 fold
Cis-delivery: fold increase in EC50, EC50 [with PD1bl]/EC50 [PD1+] [3]: 36 fold

Continued, values first:

Kd [1]: 0.1 nM
koff [1]: 2.14e-05 s⁻¹
kon [1]: 202000 M⁻¹ s⁻¹
B2: PD1 0379 IgG-IL2v (P1AD4370) (other)
light: DIQMTQSPSSLSASVGDRVTITCRASESVDTSDNSFIHWYQQKPGKSPKLLIYRSSTLESGVPSRFSGSGSGTDFTLTISSLQPEDFATYYCQQNYDVPWTFGQGTKVEIKRTVAAPSVFIFPPSDEQLKSGTASVVCLLNNFYPREAKVQWKVDNALQSGNSQESVTEQDSKDSTYSLSSTLTLSKADYEKHKVYACEVTHQGLSSPVTKSFNRGEC
heavy 1: B1 heavy 1 with H438R, Y439F
heavy 2: EVQLLESGGGLVQPGGSLRLSCAASGFSFSSYTMSWVRQAPGKGLEWVATISGGGRDIYYPDSVKGRFTISRDNSKNTLYLQMNSLRAEDTAVYYCVLLTGRVYFALDSWGQGTLVTVSSASTKGPSVFPLAPSSKSTSGGTAALGCLVKDYFPEPVTVSWNSGALTSGVHTFPAVLQSSGLYSLSSVVTVPSSSLGTQTYICNVNHKPSNTKVDKKV[human IgG1 Fc with changes not written out]GGGGSGGGGSGGGGSAPASSSTKKTQLQLEHLLLDLQMILNGINNYKNPKLTRMLTAKFAMPKKATELKHLQCLEEELKPLEEVLNGAQSKNFHLRPRDLISNINVIVLELKGSETTFMCEYADETATIVEFLNRWITFAQSIISTLT
notes: also called PD1 379 IgG-huIL2v; P1AD4370-002

AUC of STAT5-P on PD1+ T cells [2]: 67.2
AUC of STAT5-P on PD1-blocked T cells [2]: 9.5
Potency reduction vs PD1-IL2v [2]: 8.57 fold
Cis-delivery: fold increase in EC50, EC50 [with PD1bl]/EC50 [PD1+] [3]: 47100 fold
B3: PD1-IL2v_N88D (P1AA6761 = P1AD5401) (other)
light: B1 light
heavy 1: B1 heavy 1
heavy 2: EVQLLESGGGLVQPGGSLRLSCAASGFSFSSYTMSWVRQAPGKGLEWVATISGGGRDIYYPDSVKGRFTISRDNSKNTLYLQMNSLRAEDTAVYYCVLLTGRVYFALDSWGQGTLVTVSSASTKGPSVFPLAPSSKSTSGGTAALGCLVKDYFPEPVTVSWNSGALTSGVHTFPAVLQSSGLYSLSSVVTVPSSSLGTQTYICNVNHKPSNTKVDKKV[human IgG1 Fc with changes not written out]GGGGSGGGGSGGGGSAPASSSTKKTQLQLEHLLLDLQMILNGINNYKNPKLTRMLTAKFAMPKKATELKHLQCLEEELKPLEEVLNGAQSKNFHLRPRDLISDINVIVLELKGSETTFMCEYADETATIVEFLNRWITFAQSIISTLT

Kd [1]: 70 nM
koff [1]: 0.00585 s⁻¹
kon [1]: 81800 M⁻¹ s⁻¹
AUC of STAT5-P on PD1+ T cells [2]: 47.1
AUC of STAT5-P on PD1-blocked T cells [2]: 7
Potency reduction vs PD1-IL2v [2]: 8.03 fold
Cis-delivery: fold increase in EC50, EC50 [with PD1bl]/EC50 [PD1+] [3]: 69100 fold
B5: PD1 376 IgG-huIL2v N88Q (P1AE0496) (other)
light: B1 light
heavy 1: B1 heavy 1
heavy 2: EVQLLESGGGLVQPGGSLRLSCAASGFSFSSYTMSWVRQAPGKGLEWVATISGGGRDIYYPDSVKGRFTISRDNSKNTLYLQMNSLRAEDTAVYYCVLLTGRVYFALDSWGQGTLVTVSSASTKGPSVFPLAPSSKSTSGGTAALGCLVKDYFPEPVTVSWNSGALTSGVHTFPAVLQSSGLYSLSSVVTVPSSSLGTQTYICNVNHKPSNTKVDKKV[human IgG1 Fc with changes not written out]GGGGSGGGGSGGGGSAPASSSTKKTQLQLEHLLLDLQMILNGINNYKNPKLTRMLTAKFAMPKKATELKHLQCLEEELKPLEEVLNGAQSKNFHLRPRDLISQINVIVLELKGSETTFMCEYADETATIVEFLNRWITFAQSIISTLT
notes: Immunoconjugate: anti-human PD-1 (376) IgG1 PG LALA knob/hole, IL2v variant on the knob heavy chain; also called PD1-IL2v N88Q; P1AE0496-004
